Measurements: paper PMC10668032
The other results are listed elsewhere or left out. At the low end of the ranking, values are background and their order means little.

Target: SIX1 homeodomain (reference allele) (UniProt Q15475)
Experiment: universal protein binding microarray
Details: Universal all-10-mer PBM (8x60K, AMADID 030236), 300 nM GST-tagged protein, Alexa Fluor 488 anti-GST; buffer, salt, pH and temperature not stated; high values mean tight binding; most listed sequences are background and not binding sites; double strand, one strand shown

Row | Sequence | binding signal [E-score]
1 | CGCCGCTA | -0.198
2 | ACCATCCT | -0.00911
3 | CGATGCTA | 0.0117
4 | AAAATGTT | -0.291
5 | ATGAAAAG | -0.104
6 | CCTCGATA | 0.335
7 | AGCACGAA | -0.0993
8 | CATCAAAC | -0.131
9 | ATTATTAA | 0.00962
10 | AGGATCCC | 0.379
11 | ATAGAGCG | 0.0303
12 | AGCCGACC | -0.106
13 | AGACACTC | 0.0261
14 | ACCGAGGC | -0.12
15 | ATTTCCCG | 0.0401
16 | CCATGTCC | -0.00154
17 | ATACGCGC | 0.256
18 | GGATTCGA | 0.212
19 | AGCAAAAT | -0.0421
20 | CAACCATC | -0.0818
21 | ATCCGAAC | 0.278
22 | ACCCGACC | 0.0804
23 | CGCTTTTA | -0.201
24 | CGAAAGCG | -0.0807
25 | ATACACCA | 0.389

Row | Sequence | binding signal [E-score]
26 | CTATATGC | 0.105
27 | CATGCAAC | -0.0801
28 | CGACAAAG | -0.146
29 | AAAACTTA | -0.225
30 | CGGCGATC | 0.302
31 | CACGTGGC | -0.197
32 | ACACCAAC | 0.224
33 | GTATGCAA | 0.0818
34 | ACAGCCTC | -0.205
35 | AGACATCC | -0.0495
36 | ACGGCCTG | -0.0499
37 | ACACGGAT | 0.401
38 | CAGCCGAC | 0.0189
39 | AGGTAGAT | 0.262
40 | ATTATATC | 0.329
41 | AACTTCGT | -0.23
42 | AGTTCCCA | -0.138
43 | AACAGACT | -0.323
44 | TAACGCAA | 0.00235
45 | GCATTCCC | -0.182
46 | CCCGTTGC | -0.188
47 | ATAAAGGC | -0.00853
48 | GCTATTCA | 0.0571
49 | GTATCTGA | 0.355
50 | GAGTCGTA | 0.121

Row | Sequence | binding signal [E-score]
51 | AATATCAT | 0.381
52 | CCGAACTC | -0.282
53 | CCGTGTGC | 0.000375
54 | ACAGGACC | -0.304
55 | ACTCCTTA | -0.15
56 | CGAGGGCA | -0.0559
57 | CCGAACAA | -0.116
58 | CAGTAACG | -0.265
59 | ATCGCCAC | 0.198
60 | GATGGCGC | -0.202
61 | CCCTTCGG | 0.226
62 | GCCTACTA | -0.0297
63 | CAGTGTTC | -0.115
64 | TATGTTAA | 0.0145
65 | AGCAACCT | -0.294
66 | TAGAAAAA | -0.118
67 | CTTTTAGC | -0.0553
68 | TAGGAACA | -0.155
69 | ATCACTCC | 0.0736
70 | AAGAGAGC | -0.186
71 | AACACGCT | -0.0317
72 | CCCGTGAC | 0.0327
73 | ACTGGTGC | -0.218
74 | TACGCCTA | 0.0904
75 | GGCATAAA | 0.0418

Row | Sequence | binding signal [E-score]
76 | AAAACCCT | -0.0688
77 | AGACGGAG | 0.0152
78 | ATGGAATG | -0.0696
79 | TAATGGAA | 0.0584
80 | AGTGCCCA | -0.175
81 | CCCTCACA | 0.0291
82 | CTATCGCC | 0.179
83 | AGTTAGCG | -0.0715
84 | AGTTAGTG | -0.185
85 | ACGGCGTG | -0.0433
86 | GAAGCGGA | -0.0359
87 | TACTCATA | 0.181
88 | GGAAATAC | 0.113
89 | TAGATATA | 0.323
90 | GCCGTCAC | -0.24
91 | AAGCTTCG | -0.257
92 | CTCAACCC | 0.0886
93 | GCCCGCGC | -0.184
94 | AATCTTCA | -0.0872
95 | AAGATGAC | 0.00417
96 | GAACTTCA | -0.314
97 | CCGGCGAG | -0.0333
98 | CAATATAC | 0.197
99 | ACGGCTAA | 0.13
100 | CTGGGCAC | -0.223

Row | Sequence | binding signal [E-score]
101 | CGCACGGC | -0.088
102 | CAATTCTA | -0.2
103 | AGAACATC | -0.161
104 | AGTTGGGC | -0.0845
105 | AATTGCGT | -0.0445
106 | AAAAGTCT | -0.317
107 | CCCCACGA | 0.0942
108 | AGCACGTG | 0.0669
109 | AACGTTAT | -0.174
110 | GAAGTCGA | -0.193
111 | ATTCGTCG | -0.079
112 | CGGGCTTA | -0.09
113 | ATCGTATA | 0.324
114 | AAACTATG | 0.033
115 | GGGACACC | 0.341
116 | GGGAAGCA | -0.293
117 | AATTTCTG | -0.249
118 | CACTTCAA | -0.171
119 | CTTGTAGA | -0.118
120 | TACGGACA | 0.104
121 | CGCAGAAA | -0.39
122 | AAATGCCC | -0.152
123 | CGTAAGCC | -0.193
124 | GCGGCGAA | -0.13
125 | TCCGAAGA | 0.189

Row | Sequence | binding signal [E-score]
126 | CAATCGCA | 0.00923
127 | AGCGACAC | 0.26
128 | TCTACACA | -0.118
129 | AAAGCTGT | -0.2
130 | AGTGGCTC | -0.104
131 | GGCAAACC | -0.0651
132 | CAGACGTA | -0.089
133 | GCGATTCC | -0.00474
134 | CCACCCCA | 0.0516
135 | CAAGGACG | -0.258
136 | ACTGCCCT | -0.141
137 | ACACTCTG | 0.0173
138 | CCTTTTCC | -0.125
139 | GCTCGCAC | -0.156
140 | AGTGACAA | -0.121
141 | GTCGATCA | 0.0264
142 | GCCAGTGA | -0.0529
143 | ACTAATAT | 0.272
144 | CTAACGTC | -0.223
145 | CCATTGTA | 0.0462
146 | ACGGCGCG | 0.00186
147 | AGTCCGAC | -0.129
148 | CGCCCGCG | -0.0812
149 | CAAGTCCA | -0.215
150 | CAAGGTAG | 0.00419

Row | Sequence | binding signal [E-score]
151 | CCTGCCAG | -0.146
152 | ATGGTTTC | 0.081
153 | AGTGGCCC | -0.26
154 | CCACCTGC | -0.142
155 | TACATGAA | -0.0562
156 | CAATTTAC | -0.194
157 | GTCGAAAA | -0.14
158 | GCGGAAAC | -0.0738
159 | TCCTAGAA | 0.0647
160 | ACGATACT | 0.439
161 | ATACTCCC | 0.303
162 | CGTTTTCA | -0.142
163 | CCCTAGGC | -0.113
164 | TAAAGCTA | -0.0359
165 | AACACAGG | -0.178
166 | AACGATGA | 0.00348
167 | ACGTTGAT | 0.138
168 | TAGGGTAA | 0.00051
169 | AAGCTGAG | -0.143
170 | CTGAGTGC | -0.141
171 | ATACTAGA | 0.218
172 | GGCTAGAC | -0.0795
